Data from PubChem BioAssay AID624202 (National Center for Advancing Translational Sciences (NCATS), 2012).
Screen size: about 380,000 compounds; about 4,000 (1.1%) were called active. This list was built around the results that the source calls inconclusive (neither active nor inactive); the mix of calls is not that of the screen. The call rests on the fitted dose curve; in most records, active means well fitted activation curve with a large enough effect; inconclusive means small, poorly fitted or top-dose-only effect; inactive means no such curve, though single readings can be large or run the other way. Potencies beside an inconclusive call are fits to weak or partial responses and may not hold up.

experiment: qHTS Assay to Identify Small Molecule Activators of BRCA1 Expression; conditions: MCF7-BRCA1-FFLuc reporter, luminescence, 48 h; activation: at 46.1 µM (top of the series), scaled: vehicle 0%, 10 µM genistein 100% unless noted; further: nearly all actives have a fitted effect of over 80% in size
Procedure, shortened: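 Quantitative HTS in MCF7 cells stably reporting BRCA1 expression via firefly luciferase. Compound treatment lasts 48 h at 37 °C in phenol-red free MEM. Activation is expressed relative to genistein at 10 microM and DMSO.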
Potency means the concentration at half of the fitted maximal effect; tags describe the fitted curve by direction and shape.

| Structure (SMILES) | Potency | activation |
| --- | --- | --- |
| c1ccc(OCCOc2ncnc3ccccc23)cc1 | active: 10 µM |  |
| CCCC(=O)N/C(N)=N/c1nc(C)c2ccccc2n1 | inactive |  |
| O=[N+]([O-])c1ccc(NN=Cc2ccccc2)nc1 | inconclusive: 1.41 µM [activator, full curve, poor fit] |  |
| Cc1ccc(C(=O)NC(=S)Nc2cccc(NC(=O)c3ccccc3Cl)c2)cc1[N+](=O)[O-] | inactive |  |
| CCCc1cc(C(=O)NCc2ccco2)no1 | inconclusive: 35.5 µM [activator, single point] |  |
| Cc1ncc(CO)c(CNc2ccc(-c3nc4ccccc4[nH]3)cc2)c1O | inconclusive: 3.98 µM [activator, partial curve, poor fit] |  |
| COc1cc(C)ccc1OCc1cc(C(=O)NCc2ccncc2)no1 | active: 7.94 µM |  |
| S=C(Nc1ccc2nsnc2c1)NC1CCCCC1 | inconclusive: 15.8 µM [activator, partial curve, poor fit] |  |
| O=C1NC[C@@H](CCCCN2C[C@H](Cc3ccccc3)N(CCc3ccc(O)cc3)C(=O)C2=O)N(CCc2ccccc2)C1=O | inactive |  |
| Cc1cn(CCC(=O)Nc2ccccc2N2CCOCC2)c2ccccc12 | inconclusive: 3.55 µM [activator, partial curve, poor fit] |  |
| COc1ccc(/C=C/C(=O)Nc2ccccc2C(F)(F)F)cc1 | active: 3.16 µM |  |
| c1ccc(SCc2nc(-c3cccnc3)no2)cc1 | inconclusive: 2.51 µM [activator, full curve, poor fit] |  |
| CCN(CCn1cccn1)C(=O)c1cc(COc2ccccc2SC)on1 | active: 11.2 µM |  |
| CC(C)(C)c1cc(S(=O)(=O)CCc2ccncc2)cc(C(C)(C)C)c1F | inactive |  |
| O=C(Nc1ccc(NC(=O)c2ccco2)cc1)c1cnccn1 | active: 12.6 µM |  |
| CCN(CC)S(=O)(=O)c1ccc(N2CCCC2)c(NC(=O)c2ccccc2OC)c1 | inactive |  |
| Cc1ccc(C(=O)C(C)OC(=O)c2ccccc2[N+](=O)[O-])cc1 (stereo not given) | inconclusive: 10 µM [activator, partial curve, poor fit] |  |
| O=C(NNc1ccc([N+](=O)[O-])cn1)Nc1ccc(N=Nc2ccccc2)cc1 | inactive |  |
| Cc1ccc(OCC(=O)OCC(=O)NC2CC2)cc1C | inactive |  |
| N/C(Cc1cccc2ccccc12)=N\OC(=O)Cc1cccs1 | inconclusive: 12.6 µM [activator, partial curve, poor fit] |  |
| O=C(Cn1cnc2sc(-c3ccccc3)cc2c1=O)NCc1ccco1 | inactive |  |
| CCc1nnc(NC(=O)c2cccc(NC(=O)C(C)C)c2)s1 | active: 11.2 µM |  |
| N#Cc1ccccc1CSc1nnc(-c2ccc(Br)cc2)o1 | inconclusive: 1.26 µM [activator, full curve, poor fit] |  |
| Cn1cncc1C#Cc1ccc2c(=O)c3ccccc3oc2c1 | inconclusive: 7.08 µM [activator, full curve, poor fit] |  |
| Cc1nn(CCC(=O)NNC(=S)Nc2ccc([N+](=O)[O-])cc2)c(C)c1[N+](=O)[O-] | inactive |  |

| Structure (SMILES) | Potency | activation |
| --- | --- | --- |
| CCN(CC)S(=O)(=O)c1cc(C(=O)Nc2ccc(Cl)cn2)ccc1C | inconclusive: 1.58 µM [activator, partial curve, poor fit] |  |
| O=C(Nc1cccnc1Cl)c1noc2c1CCc1ccccc1-2 | inconclusive: 1.58 µM [activator, full curve, poor fit] |  |
| ON=C(CCc1ccccc1)c1ccccc1 | inconclusive: 35.5 µM [activator, single point] |  |
| COc1ccc(-c2noc(-c3ccco3)n2)cc1OC | inconclusive: 2.24 µM [activator, full curve, poor fit] |  |
| [O-]/[N+](=C\C=C\c1ccccc1)c1ccccc1 | inconclusive: 12.6 µM [activator, partial curve, poor fit] |  |
| FC(F)Sc1nc2ccccc2[nH]1 | inactive |  |
| N#Cc1ccsc1NC(=O)c1ccccn1 | inactive |  |
| COc1ccc2oc(-c3ccco3)cc(=O)c2c1 | active: 6.31 µM |  |
| Cc1ccc(-n2c(C)cc(C(=O)CSc3nnnn3C)c2C)cc1 |  | inconclusive: 13.3% [activator] |
| Oc1ccc(Br)cc1C=Nc1cccn2cc(-c3ccccc3)nc12 | active: 6.31 µM |  |
| CN(Cc1cccs1)C(=O)c1ccc(Cl)c(S(=O)(=O)N2CCCCCC2)c1 | inactive |  |
| c1ccn2c(SCc3ccc4c(c3)OCCO4)nnc2c1 | inconclusive: 15.8 µM [activator, partial curve, poor fit] |  |
| COc1ccc(CNC(=O)/C=C/c2ccc(OCCCF)cc2)cc1 | inactive |  |
| CCN1C(=O)[C@H]2[C@H]3CN=C(SCc4ccc(C#N)cc4)N3[C@@](C)(C(=O)OC)[C@H]2C1=O | inactive |  |
| COc1c2c(cc3oc(=O)c4c5ccc(O)cc5oc4c13)OC(C)(C)CC2 | inconclusive: 8.91 µM [activator, partial curve, poor fit] |  |
| Cc1c(C(=O)N(Cc2ccc(Cl)cc2)C2CCS(=O)(=O)C2)oc2ccccc12 (stereo not given) | inactive |  |
| Cc1ccc(/C=N/NC(=O)c2cccc(S(=O)(=O)Nc3cccc(Cl)c3)c2)o1 | inactive |  |
| COc1ccc(CNc2nc3ccccc3n2C)c(O)c1 | active: 1.58 µM |  |
| COc1ccc(COc2ccc3c(C)cc(=O)oc3c2)cc1 | active: 2.51 µM |  |
| COCn1c(COc2ccc3ccccc3c2)nc2ccccc21 | inconclusive: 4.47 µM [activator, partial curve, poor fit] |  |
| CSCC[C@H](NC(=O)[C@H](Cc1ccccc1)n1c(=O)[nH]c2ccccc2c1=O)C(=O)N1CCC(C(=O)O)CC1 | inactive |  |
| O=C(O)c1ccccc1-c1nc2ccccc2[nH]1 | inconclusive: 35.5 µM [activator, single point] |  |
| O=S(=O)(c1ccc(F)cc1)N1CCN(CC(O)COCc2ccccc2)CC1 (stereo not given) | inactive |  |
| CN(C)CCCN=c1cc(-c2ccccc2)oc2ccc(Cl)cc12 | active: 11.2 µM |  |
| COc1ccc(/C(N)=N/OC(=O)c2ccc(Br)o2)cc1 | inconclusive: 10 µM [activator, partial curve, poor fit] |  |
